Measured values as given in paper PMC11263659, “Transmembrane helix interactions regulate oligomerization of the receptor tyrosine kinase EphA2” (The Journal of Biological Chemistry, 2024).

B1: EphA2 wild-type (full-length human EphA2 labelled at the C-terminus with mTurquoise or eYFP) (receptor)
chain: [letters of about 500 residues left out]IGGVAVGVVLLLVLAGVGFFIHRRRKNQRARQSPEDVYFSKSEQLKPLKTYVDPHTYEDPNQAVLKFTTEIHPSCVTRQKVIGAGEFGEVYKGMLKTSSGKKEVPVAIKTLKAGYTEKQRVDFLGEAGIMGQFSHHNIIRLEGVISKYKPMMIITEYMENGALDKFLREKDGEFSVLQLVGMLRGIAAGMKYLANMNYVHRDLAARNILVNSNLVCKVSDFGLSRVLEDDPEATYTTSGGKIPIRWTAPEAISYRKFTSASDVWSFGIVMWEVMTYGERPYWELSNHEVMKAINDGFRLPTPMDCPSAIYQLMMQCWQQERARRPKFADIVSILDKLIRAPDSLKTLADFDPRVSIRLPSTSGSEGVPFRTVSEWLESIKMQQYTEHFMAAGYTAIEKVVQMTNDDIKRIGVRLPGHQKRIAYSLLGLKDQVNTVGIPI
notes: EphA2 receptor tyrosine kinase, human, full-length, in pcDNA3.1(+); In FRET the donor copy (mTurquoise) and the acceptor copy (eYFP) were co-transfected 1:3; in FIF only the eYFP copy was used; also called EphA2 WT; WT; source: HEK293T, transiently transfected, in the plasma membrane of live cells; not shown: mTurquoise or eYFP (via a 15 amino acid (GGS)5 linker), C-terminal, kept
B2: EphA2 G539I/A542I/G553I HR mutant (full-length human EphA2 labelled at the C-terminus with mTurquoise or eYFP) (receptor)
chain: [letters of about 500 residues left out]IIGVIVGVVLLLVLAIVGFFIHRRRKNQRARQSPEDVYFSKSEQLKPLKTYVDPHTYEDPNQAVLKFTTEIHPSCVTRQKVIGAGEFGEVYKGMLKTSSGKKEVPVAIKTLKAGYTEKQRVDFLGEAGIMGQFSHHNIIRLEGVISKYKPMMIITEYMENGALDKFLREKDGEFSVLQLVGMLRGIAAGMKYLANMNYVHRDLAARNILVNSNLVCKVSDFGLSRVLEDDPEATYTTSGGKIPIRWTAPEAISYRKFTSASDVWSFGIVMWEVMTYGERPYWELSNHEVMKAINDGFRLPTPMDCPSAIYQLMMQCWQQERARRPKFADIVSILDKLIRAPDSLKTLADFDPRVSIRLPSTSGSEGVPFRTVSEWLESIKMQQYTEHFMAAGYTAIEKVVQMTNDDIKRIGVRLPGHQKRIAYSLLGLKDQVNTVGIPI
notes: EphA2 receptor tyrosine kinase, human, full-length, heptad repeat (HR) variant in the TM helix; In FRET the donor copy (mTurquoise) and the acceptor copy (eYFP) were co-transfected 1:3; in FIF only the eYFP copy was used; also called EphA2 HR; heptad repeat variant; source: HEK293T, transiently transfected, in the plasma membrane of live cells; not shown: mTurquoise or eYFP (via a 15 amino acid …)
B3: EphA2 G540I/G544I GZ mutant (full-length human EphA2 labelled at the C-terminus with mTurquoise or eYFP) (receptor)
chain: [letters of about 500 residues left out]IGIVAVIVVLLLVLAGVGFFIHRRRKNQRARQSPEDVYFSKSEQLKPLKTYVDPHTYEDPNQAVLKFTTEIHPSCVTRQKVIGAGEFGEVYKGMLKTSSGKKEVPVAIKTLKAGYTEKQRVDFLGEAGIMGQFSHHNIIRLEGVISKYKPMMIITEYMENGALDKFLREKDGEFSVLQLVGMLRGIAAGMKYLANMNYVHRDLAARNILVNSNLVCKVSDFGLSRVLEDDPEATYTTSGGKIPIRWTAPEAISYRKFTSASDVWSFGIVMWEVMTYGERPYWELSNHEVMKAINDGFRLPTPMDCPSAIYQLMMQCWQQERARRPKFADIVSILDKLIRAPDSLKTLADFDPRVSIRLPSTSGSEGVPFRTVSEWLESIKMQQYTEHFMAAGYTAIEKVVQMTNDDIKRIGVRLPGHQKRIAYSLLGLKDQVNTVGIPI
notes: EphA2 receptor tyrosine kinase, human, full-length, glycine zipper (GZ) variant in the TM helix; In FRET the donor copy (mTurquoise) and the acceptor copy (eYFP) were co-transfected 1:3; in FIF only the eYFP copy was used; also called EphA2 GZ; glycine zipper variant; source: HEK293T, transiently transfected, in the plasma membrane of live cells; not shown: mTurquoise or eYFP (via a 15 amino acid …)

Target: the molecule itself
Experiment: Fluorescence Intensity Fluctuations (FIF) spectrometry; confocal microscope, plasma membrane of HEK293T cells expressing EphA2-eYFP, hypoosmotic medium; molecular brightness in 15 x 15 pixel segments, log-normal fit; with 50 nM ephrinA1-Fc

B1 and B2 are within error of each other in “mean of the FIF molecular brightness distribution” value (“mean” below): 5.97 ± 0.09 for the first, 5.86 ± 0.11 for the second.

In the case of B3, the “mean” value is reported as 4.88 ± 0.07.

Target: the molecule itself
Experiment: Fluorescence Intensity Fluctuations (FIF) spectrometry; confocal microscope, plasma membrane of HEK293T cells expressing EphA2-eYFP, hypoosmotic medium; molecular brightness in 15 x 15 pixel segments, log-normal fit; with 200 nM m-ephrinA1

Going from B1 to B2, the “mean” value falls from 5.74 ± 0.07 to 5.04 ± 0.05.

B3 was tested, and the “mean” value was 4.93 ± 0.08.
